Reference: article PMC4336329 (PLoS ONE, 2015)
The campaign covered roughly 310,000 compounds. About 14,000 (4.5%) showed an effect of 50% or more. Effects have a minus sign here. The list shows a part of the results.

molecular target: human ether-à-go-go-related gene (hERG) potassium channel (human, UniProt Q12809); assay: primary screen, population patch clamp on CHO cells stably expressing hERG
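Note: peak tail current of the secondary pulse compared with the same well before compound.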

Chain of human ether-à-go-go-related gene (hERG) potassium channel (Q12809 whole entry, looked up): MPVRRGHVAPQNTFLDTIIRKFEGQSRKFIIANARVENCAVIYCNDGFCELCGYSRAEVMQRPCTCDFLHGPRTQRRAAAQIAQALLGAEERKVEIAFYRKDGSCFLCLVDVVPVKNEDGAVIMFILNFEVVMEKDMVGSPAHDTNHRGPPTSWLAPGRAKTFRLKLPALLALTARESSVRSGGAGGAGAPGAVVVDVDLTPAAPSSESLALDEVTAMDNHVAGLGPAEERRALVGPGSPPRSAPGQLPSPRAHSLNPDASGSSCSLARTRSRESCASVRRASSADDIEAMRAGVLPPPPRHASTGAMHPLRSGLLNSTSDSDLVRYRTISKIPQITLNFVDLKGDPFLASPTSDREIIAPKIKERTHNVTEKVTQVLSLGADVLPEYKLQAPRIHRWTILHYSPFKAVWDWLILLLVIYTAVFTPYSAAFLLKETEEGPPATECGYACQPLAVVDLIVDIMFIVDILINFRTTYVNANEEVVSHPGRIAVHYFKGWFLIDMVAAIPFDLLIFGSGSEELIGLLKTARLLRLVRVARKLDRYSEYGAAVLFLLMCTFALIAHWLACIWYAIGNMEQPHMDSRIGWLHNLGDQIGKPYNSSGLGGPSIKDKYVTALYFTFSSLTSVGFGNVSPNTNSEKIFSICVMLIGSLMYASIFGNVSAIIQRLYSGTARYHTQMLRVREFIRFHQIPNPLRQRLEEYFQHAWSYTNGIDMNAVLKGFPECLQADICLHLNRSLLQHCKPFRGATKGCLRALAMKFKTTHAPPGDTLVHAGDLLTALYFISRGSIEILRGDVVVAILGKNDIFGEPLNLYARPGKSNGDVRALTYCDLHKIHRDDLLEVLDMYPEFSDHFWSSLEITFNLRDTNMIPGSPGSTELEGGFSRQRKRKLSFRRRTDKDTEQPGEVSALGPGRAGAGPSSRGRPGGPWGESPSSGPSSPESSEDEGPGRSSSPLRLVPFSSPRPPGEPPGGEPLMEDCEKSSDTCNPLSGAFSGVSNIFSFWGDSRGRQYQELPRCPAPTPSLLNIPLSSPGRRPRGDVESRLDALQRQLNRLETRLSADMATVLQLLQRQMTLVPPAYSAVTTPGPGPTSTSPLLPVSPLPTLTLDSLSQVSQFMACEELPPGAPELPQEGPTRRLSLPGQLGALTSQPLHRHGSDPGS

SMILES	hERG current change (%, negative = inhibition) at 10uM [%]
Nc1nc(-c2ccccc2)c(-c2ccccc2)o1	10.9
Cc1nn(-c2ccccc2)c(Cl)c1/C=N/Nc1nnc(C)c(=O)[nH]1	-0.145
O=C(Nc1ccc(F)cc1)c1cccc(N2C(=O)C3C4C=CC(C5CC45)C3C2=O)c1 (stereo not shown)	5.37
CCOC(=O)c1c(-c2cccs2)csc1NC(=O)CSc1ncn[nH]1	11
CCOc1ccc(OCC(=O)OCc2cc(=O)n3cc(Br)ccc3n2)cc1	12
CCOC(=O)N1CCc2c(sc3[nH]c(=S)[nH]c(=S)c23)C1	13.4
CCOc1ccc(NC(=O)CSc2nnnn2C2CC2)cc1S(=O)(=O)N1CCCC1	-8.53
COc1ccccc1Cn1c(-c2ccccc2OC)nc2ccccc21	-20.1
CN(C(=O)COC(=O)c1ccccc1Cc1ccccc1)c1c(N)n(Cc2ccccc2)c(=O)[nH]c1=O	9.7
O=C(Nc1ccc(OC(F)F)c(Cl)c1)c1cccc(OC(F)F)c1	-61.7
O=C(NCC1CCCO1)c1nn2c(C(F)(F)F)cc(-c3ccc(Br)o3)nc2c1Br (stereo not shown)	2.59
Cc1ccc(CNC(=O)c2ccccc2NC(=O)CN2CCN(C)CC2)cc1	-59.2
CC1=C(C(=O)NCc2ccccc2)C(c2cccnc2)n2ncnc2N1 (stereo not shown)	2.59
CCSc1nc(N)c2c(C)c(C)sc2n1	-2.68
O=C1CCSc2ccc(Cl)cc2N1Cc1ccc(Cl)cc1	14.1
O=C1N/C(=C\c2ccc(N3CCOCC3)c(F)c2)C(=O)N1Cc1ccccc1	18.1
O=C(CN1CCN(C(=O)c2ccco2)CC1)Nc1ccccc1-c1ccccc1	-50.5
Cc1nc(N2CCN(c3ccccc3F)CC2)[nH]c(=O)c1C	17
COc1ccc(C(=O)NCc2nnc(SCC(=O)NC3=NCCS3)n2C)cc1	-5.57
CCN(CC)S(=O)(=O)c1ccc(C)c(NC(=O)COC(=O)C=C(C)C)c1	2.17
CCn1c(COc2ccccc2C)nnc1SCC(=O)NCc1ccccc1	-25.2
CCCCn1cnc2c(=S)nc(N)[nH]c21	6.43

SMILES	hERG current change (%, negative = inhibition) at 10uM [%]
O=c1c2c(-c3ccc(Cl)cc3)csc2nc2n1CCC2	-28.9
CCOC(=O)Cc1csc(NS(=O)(=O)c2ccc(C(F)(F)F)cc2)n1	20.6
Cc1cc(C)cc(NC(=O)CN2CCN(c3ccccc3)CC2)c1	7.33
COC(=O)N1CCN(S(=O)(=O)c2ccc(F)cc2)CC1	4.01
CCC(=O)Nc1ccc2c(c1)ncn2CCc1ccccc1	-10.6
COc1c(Cl)cc(C(=O)Nc2ccccc2C(=O)O)cc1Cl	47.3
CCOc1ccc(CCNC(=O)C2CC(=O)N(CCc3ccccc3)C2)cc1OCC (stereo not shown)	4
COc1ccccc1CNS(=O)(=O)c1ccc(-c2cc(C)no2)cc1	17
CC1CN(C(=O)CCC(=O)NCc2ccccc2)c2cc(Cl)ccc2O1 (stereo not shown)	-11.5
CCc1cccc(OCC(=O)Nc2ccc(C)c(S(=O)(=O)N3CCCCCC3)c2)c1	-2.51
CCOCCCN(C)C1CCN(C(=O)c2oc3ccccc3c2NC(=O)COc2ccc(F)cc2)CC1	-80.1
CCOc1ccc(OCC)c(NC(=O)CCS(=O)(=O)c2ccc(Br)s2)c1	8.53
CN(c1ccccc1C(=O)Nc1ccccc1C(=O)NCc1ccco1)S(C)(=O)=O	-13
Cc1ccccc1NC(=O)CNc1ccccc1C(=O)NCc1ccco1	8.35
O=C(Nc1ccc(F)cc1F)c1ccc2c(c1)OCCO2	15.4
CC1(OC(=O)C2CCCC2)C(=O)C=C2C=C(c3ccsc3)N(CCc3ccccn3)C=C2C1=O (stereo not shown)	-18.8
Cc1ccc(C(=O)NNC(=O)c2cccnc2SCc2cccc([N+](=O)[O-])c2)cc1	19.4
CN(C)S(=O)(=O)c1ccc(N2CCCC2)c(C(=O)NCc2cccc(C(F)(F)F)c2)c1	4.61
CCOC(=O)c1cn(C2CC2)c2c(F)c(NCCCN(C)C)c(F)cc2c1=O	10.7
COc1cc(/C=C/c2cc[n+](C)cc2)ccc1OCC(=O)Nc1ccccc1.[I-]	10.7
Cc1cc(C(=O)OCC(=O)N2CC(=O)Nc3ccccc32)c(C)n1-c1ccccc1	4.06
COc1ccc(-c2csc(NC(=O)c3ccco3)n2)cc1.Cl	-5.12

SMILES	hERG current change (%, negative = inhibition) at 10uM [%]
Cc1ccc(C)c(NC(=O)COC(=O)c2c(C)nn(-c3ccccc3)c2C)c1	-3.78
O=C(NC1CCCC1)C(c1c[nH]c2ccccc12)N(C(=O)Cn1nnc(-c2ccc(Cl)cc2)n1)c1ccccc1 (stereo not shown)	-12.6
Cn1ncc2c(NCc3ccccc3)nc(NCCCO)nc21	9.11
CNC(=O)NC(O)C(Cl)(Cl)Cl (stereo not shown)	29.6
Cc1ncc(CO)c(/C=N/Nc2ccc(C(F)(F)F)cn2)c1O	-4.15
COc1ccc(Cl)cc1C(=O)Nc1ccc(NC(=O)c2ccco2)cc1	16.8
Cc1c(C(=O)N2CCN(C(c3ccccc3)c3ccccc3)CC2)oc2ccccc12	11.2
Cc1ccc(Nc2nc(Cl)c(C=O)s2)cc1	-0.0108
O=C(c1ccccc1)c1ccc(Oc2ccc(C(=O)O)c(C(=O)O)c2)cc1	12.5
Cc1ccsc1CNC12CC3CC(CC(C3)C1)C2.Cl	-19.2
Clc1ccc(-n2nnnc2Sc2ncnc3sccc23)cc1	12.8
O=S(=O)(Cc1nnnn1-c1ccccc1)c1ccc(F)cc1	6.02
CCOc1ccccc1N1CCN(S(=O)(=O)c2cccc3nsnc23)CC1	-27
CCOCCCNCc1ccc(OC)c(OC)c1.O=C(O)C(=O)O	3.24
O=C(CN1C(=O)NC2(CCCC2)C1=O)Nc1cc(C(F)(F)F)ccc1N1CCCCC1	-0.754
N#CCn1cc(/C=N/NC(=O)c2cc3c(ccc4ccccc43)o2)c2ccccc21	13.4
C=CCNC(=O)c1ccc(C2SCC(=O)N2Cc2ccco2)cc1 (stereo not shown)	-21.7
O=C(NCc1ccc(Cl)cc1)c1cnccn1	-10.3
Cc1cc(C)nc(SCC(=O)NN)n1	21.1
Cc1cccc(NC2SC(=O)NC2=O)c1 (stereo not shown)	-11.3
O=C(CSc1nnc(-c2ccncc2)n1Cc1ccco1)N1c2ccccc2Sc2ccc(Cl)cc21	-2.92
CC(=O)NS(=O)(=O)c1ccc(NC(=O)CC23CC4CC(CC(Br)(C4)C2)C3)cc1	25.9

SMILES	hERG current change (%, negative = inhibition) at 10uM [%]
NC(=O)c1ccccc1OCC(=O)Nc1ccc(Cl)c(Cl)c1	0.426
CN(C)S(=O)(=O)c1ccc(C(=O)N2CCN(C(=O)C3CCCO3)CC2)cc1 (stereo not shown)	5.14
Cc1cccc(Nc2ccc([N+](=O)[O-])cn2)c1	10.9
O=C1CN(C(=O)COC(=O)c2ccc[n+]([O-])c2)c2ccccc2N1	22.9
CCOC(=O)C1=NNC2C(=O)N(Cc3ccccc3)C(=O)C12 (stereo not shown)	5.91
COc1ccc(C(=O)N2CCC(C(=O)Nc3ccc(OC)c(OC)c3)CC2)cc1	1.37
Cn1ncc(C(N)=O)c1NC(=S)NC(=O)c1ccc(Br)o1	10.1
O=C(O)CCCCCCCCc1cn(CN2C(=O)c3ccccc3C2=O)nn1	13.3
CSc1ccc(S(=O)(=O)NCC(=O)OCC(=O)N2CCCC2=O)cc1[N+](=O)[O-]	-9.51
CCN(CC)c1ccc(S(=O)(=O)N2CCOCC2)cc1NC(=O)CSc1ccccc1	-16.3
O=C(c1cccc(Cl)c1)N1CCN(Cc2ccccc2F)CC1	10.1
O=C(NCCc1c[nH]c2ccccc12)Nc1ccccc1	12
CCOc1ccc(OCC)c(NC(=O)C2CCCN(S(=O)(=O)c3ccc(C)cc3)C2)c1 (stereo not shown)	13.9
Clc1ccc2nc(-c3ccc(Cl)nc3)[nH]c2c1	3.76
O=C(NC(=S)N1CCN(C/C=C/c2ccccc2)CC1)c1ccc(Cl)nc1	-23.5
COc1cccc(/C=C/C(=O)OCC(=O)NCCC2=CCCCC2)c1	1.2
Cc1nnc(NC(=O)c2csc3c2CCCC3)s1	8.52
CCOc1ccccc1C1C(C#N)=C(N)Oc2cc(N)ccc21 (stereo not shown)	-5.58
O=C(CN1CCN(Cc2ccc(F)cc2)C1=O)NC1CCCC1	-6.54
Cc1ccc(S(=O)(=O)c2nc(S(C)(=O)=O)sc2N2CCCC2)cc1	14.5
Cc1cc(C(F)(F)F)c2c(N)c(C(=O)NC3CC3)sc2n1	18.7
Cn1c(CN2CCOCC2)nnc1SCC(=O)Nc1cccc(C(F)(F)F)c1	-1.04
